Reference: the supplement of paper PMC12355420
“And” between values parts separate entries of the source, which are not always exact repeats. Identical values can stand only once. Counter-ions that a name gives are not always drawn. This is one part of the list. Cut-off read from the data, not from the text of the source: active = 0.5 or less and inactive = the rest. Many values rest on one well or one pass, so single values are uncertain.

What was measured:
Details in all cases: 50 µM; 24 h
[1] = system: HeLa VPS33A reporter cells; test: relative cell viability (CellMask signal) vs DMSO (fraction of DMSO); higher = less cytotoxic;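 note: primary screen of an FDA-approved drug library in HeLa reporter cells in 96-well format, CellMask signal normalized to DMSO-treated wells set as 1, under 0.5 deemed highly cytotoxic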
[2] = system: HeLa VPS33A R498W KI + HA-SDC1-FLAG; test: relative GAG core protein HA-SDC1 amount per cell number vs DMSO (fraction of DMSO); higher = more SDC1 (GAG core protein);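 note: HA-SDC1 level read out by In-Cell Western staining with an anti-HA antibody against the N-terminal tag, screening FDA-approved library drugs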
[3] = system: HeLa VPS33A KO + NLuc-VPS33A R498W; test: relative mutant VPS33A R498W amount (NanoLuc luminescence) vs DMSO (fraction of DMSO); HeLa model of a glycosaminoglycan (GAG) storage disease; KI is knock-in and KO knock-out; SDC1 is syndecan 1; higher = higher mutant VPS33A level;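 note: screen of an FDA-approved drug library, NanoLuc luminescence read after lysing the treated cells, taken as a measure of mutant VPS33A protein stability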

Row | Structure (SMILES) | relative cell viability [1] | relative GAG core protein HA-SDC1 amount per cell number [2] | relative mutant VPS33A R498W amount [3]
1 | Nc1ccc(C(=O)O)c(O)c1 [4-Aminosalicylic acid] | 1.02 | inactive: 0.864 | 
2 | CCCCCCCCCCCCCCCCCC(=O)OC [Stearic Acid methyl ester] | 1.03 | inactive: 0.869 | 1.67
3 | Cc1ccc(O)c([C@H](CCN(C(C)C)C(C)C)c2ccccc2)c1 [Tolterodine tartrate] | 0.976 | active: 0.446 | 0.929
4 | CC(C)NCC(O)COc1ccc(CC(N)=O)cc1 (racemic) [(R,S)-Atenolol] | 1.02 | inactive: 0.904 | 1.23
5 | O=C(O)c1ccccc1C(=O)O [Phthalic acid] | 0.992 | inactive: 0.937 | 1.29
6 | Cc1cnc(C(=O)O)c[n+]1[O-] [Acipimox] | 0.998 | inactive: 0.903 | 1.64
7 | O=C([O-])c1ccccc1O.[Na+] [Sodium salicylate] | 0.977 | inactive: 0.913 | 
8 | CC1(C)S[C@@H]2[C@H](NC(=O)[C@H](NC(=O)N3CCNC3=O)c3ccccc3)C(=O)N2[C@H]1C(=O)O [Azlocillin sodium salt] | 0.982 | inactive: 0.971 | 1.54
9 | Nc1nc(N)c2nc(-c3ccccc3)c(N)nc2n1 [Triamterene] | 1.01 | inactive: 0.955 | 1.48
10 | CN(Cc1cc(Br)cc(Br)c1N)C1CCCCC1 [Bromhexine HCl] | 1.02 | inactive: 0.558 | 0.695
11 | CN1CCc2cc3c(cc2C(=O)Cc2ccc4c(c2C1)OCO4)OCO3 [Protopine] | 0.963 | active: 0.378 | 0.757
12 | CCCCC[C@H](O)/C=C/[C@H]1[C@H](O)CC(=O)[C@@H]1C/C=C\CCCC(=O)O [Prostaglandin E2] | 1.21 | inactive: 0.653 | 1.77
13 | CN(C)CCc1c[nH]c2ccc(C[C@H]3COC(=O)N3)cc12 [Zolmitriptan] | 0.987 | inactive: 0.78 | 1.65
14 | CCc1c2c(nc3ccc(OC(=O)N4CCC(N5CCCCC5)CC4)cc13)-c1cc3c(c(=O)n1C2)COC(=O)[C@]3(O)CC [Irinotecan HCl Trihydrate] | 1.06 | inactive: 0.636 | 0.739
15 | CCC[C@H](N[C@@H](C)C(=O)N1[C@H](C(=O)O)C[C@@H]2CCCC[C@@H]21)C(=O)OCC [Perindopril Erbumine] | 1.32 | inactive: 1.58 | 1.05
16 | O=C(O)c1ccccc1O [Salicylic acid] | 1.27 | inactive: 1.04 | 
17 | NNC(=O)c1ccncc1.Nc1ccc(C(=O)O)c(O)c1 [Pasiniazid] | 1.1 | inactive: 1.07 | 
18 | CC(C)(Oc1ccc(CCNC(=O)c2ccc(Cl)cc2)cc1)C(=O)O [Bezafibrate] | 1.14 | inactive: 1.19 | 1.15
19 | CCOC(=O)c1ccc(N)cc1 [Benzocaine] | 0.916 | inactive: 1.16 | 
20 | Cc1ccc(/C=C2/C(=O)C3(C)CCC2C3(C)C)cc1 (stereo unspecified) [4-Methylbenzylidene camphor] | 0.988 | inactive: 0.791 | 0.834

Row | Structure (SMILES) | relative cell viability [1] | relative GAG core protein HA-SDC1 amount per cell number [2] | relative mutant VPS33A R498W amount [3]
21 | CC(=O)Nc1ccc(O)cc1 [Acetaminophen] | 0.927 | inactive: 0.916 | 1.11
22 | C#CCN[C@@H]1CCc2ccccc21 [Rasagiline Mesylate] | 0.931 | inactive: 1.23 | 1.21
23 | Nc1nc(NC2CC2)c2ncn([C@H]3C=C[C@@H](CO)C3)c2n1 [Abacavir sulfate] | 1.11 | inactive: 0.882 | 0.616
24 | CC(=O)N(O)CCCCCNC(=O)CCC(=O)N(O)CCCCCNC(=O)CCC(=O)N(O)CCCCCN [Deferoxamine mesylate] | 1.17 | inactive: 0.859 | 2.09
25 | O=C(c1cc(Cc2n[nH]c(=O)c3ccccc23)ccc1F)N1CCN(C(=O)C2CC2)CC1 | 1.09 | inactive: 0.943 | 0.621
26 | COC(=O)[C@@H]1CC2=CC(=O)CC[C@]2(C)[C@@]23O[C@@H]2C[C@@]2(C)[C@@H](CC[C@@]24CCC(=O)O4)[C@H]13 [Epleremone] | 1.25 | inactive: 0.938 | 0.894
27 | O=C(CCc1ccc(O)cc1)c1c(O)cc(O)cc1O[C@@H]1OC(CO)[C@@H](O)[C@@H](O)C1O (stereo partly specified) [Phloridzin] | 1.02 | inactive: 0.937 | 1.34
28 | COc1ccc2cc3[n+](cc2c1OC)CCc1cc2c(cc1-3)OCO2 [Berberine hydrochloride] | 1.07 | inactive: 0.501 | 0.764
29 | Nc1ccc(O)c(C(=O)O)c1 [Mesalamine] | 0.949 | inactive: 0.924 | 
30 | COc1cc2nc(N3CCN(C(=O)C4CCCO4)CC3)nc(N)c2cc1OC (stereo unspecified) [Terazosin HCl] | 1.13 | inactive: 0.953 | 1.95
31 | Cc1c(C)c2c(c(C)c1O)CCC(C)(CCCC(C)CCCC(C)CCCC(C)C)O2 (racemic) [DL-α-Tocopherol] | 1.02 | inactive: 0.887 | 1.48
32 | CCn1c(=O)c2c(nc(/C=C/c3ccc(OC)c(OC)c3)n2C)n(CC)c1=O [Istradefylline (KW-6002)] | 1.15 | inactive: 1.39 | 0.694
33 | O=C(CCCCCCC(=O)Nc1ccccc1)NO [Vorinostat (SAHA, MK0683)] | 0.752 | inactive: 0.704 | 6.58
34 | NC(=O)c1cc[n+](CC2=C(C(=O)[O-])N3C(=O)[C@@H](NC(=O)[C@@H](c4ccccc4)S(=O)(=O)O)[C@H]3SC2)cc1 [Cefsulodin (sodium salt)] | 1.02 | inactive: 0.829 | 1.74
35 | Nc1ccc(C(=O)O)c(O)c1 [Sodium 4-Aminosalicylate] | 0.97 | inactive: 1.09 | 
36 | CC1=C(C(=O)O)N2C(=O)[C@@H](NC(=O)[C@H](N)c3ccccc3)[C@H]2SC1 [Cephalexin] | 1.13 | inactive: 1.62 | 1.05
37 | COCCCOc1cc(C[C@@H](C[C@H](N)[C@@H](O)C[C@H](C(=O)NCC(C)(C)C(N)=O)C(C)C)C(C)C)ccc1OC [Aliskiren Hemifumarate] | 1.03 | inactive: 1.16 | 0.94
38 | CC(C)(C)c1nc(-c2cccc(NS(=O)(=O)c3c(F)cccc3F)c2F)c(-c2ccnc(N)n2)s1 | 1.23 and 1.14 | inactive: 1.22 and inactive: 0.924 | 
39 | CCc1ccc(CCOc2ccc(CC3SC(=O)NC3=O)cc2)nc1 (stereo unspecified) [Pioglitazone HCl] | 1.33 | inactive: 1.05 | 1.01
40 | CC[C@@H](CO)NCCN[C@@H](CC)CO [Ethambutol HCl] | 1.1 | inactive: 1.27 | 0.992

Row | Structure (SMILES) | relative cell viability [1] | relative GAG core protein HA-SDC1 amount per cell number [2] | relative mutant VPS33A R498W amount [3]
41 | NS(=O)(=O)c1cc2c(cc1Cl)NC(C(Cl)Cl)NS2(=O)=O (stereo unspecified) [Trichlormethiazide] | 0.949 | inactive: 0.845 | 1.54
42 | CC[C@@H]1/C=C(\C)C[C@H](C)C[C@H](OC)[C@H]2O[C@@](O)(C(=O)C(=O)N3CCCC[C@H]3C(=O)O[C@H](/C(C)=C/[C@@H]3CC[C@H](Cl)[C@H](OC)C3)[C@H](C)[C@@H](O)CC1=O)[C@H](C)C[C@@H]2OC [Pimecrolimus] | 0.854 | inactive: 0.531 | 0.619
43 | CC1=CC(=O)CC(C)(C)C1(O)/C=C/C(C)=C\C(=O)O (stereo unspecified) [Abscisic Acid (Dormin)] | 0.963 | inactive: 0.939 | 1.12
44 | OC[C@@H](O)[C@@H](O)CO [Erythritol] | 0.906 | inactive: 1.05 | 1.39
45 | NS(=O)(=O)c1cc(Cl)c(Cl)c(S(N)(=O)=O)c1 [Dichlorphenamide] | 1.45 | inactive: 1.05 | 1.1
46 | OC[C@H]1O[C@@H](n2cnc3c2N=CNC[C@H]3O)C[C@@H]1O [Pentostatin] | 1.25 | inactive: 0.851 | 0.875
47 | Cc1ccc(-c2cc(C(F)(F)F)nn2-c2ccc(S(N)(=O)=O)cc2)cc1 [Celecoxib] | 0.927 | inactive: 0.953 | 0.535
48 | OCCc1ccc(O)cc1 [Tyrosol] | 1.14 | active: 0.417 | 0.831
49 | CN1C(C(=O)Nc2ccccn2)=C(O)c2sccc2S1(=O)=O [Tenoxicam] | 1.14 | inactive: 0.671 | 1.23
50 | CN1CC(=O)NC1=N [Creatinine] | 1.1 | inactive: 0.977 | 0.933
51 | C=C1c2cccc(O)c2C(O)=C2C(=O)[C@]3(O)C(O)=C(C(N)=O)C(=O)[C@@H](N(C)C)[C@@H]3[C@@H](O)[C@H]12 [Methacycline HCl] | 0.87 | inactive: 0.725 | 0.342
52 | O=C(NC(Cc1cc(=O)[nH]c2ccccc12)C(=O)O)c1ccc(Cl)cc1 (stereo unspecified) [Rebamipide] | 0.957 | inactive: 0.983 | 1.43
53 | CN1c2cc(O)c(N=NC(N)=O)cc2CC1S(=O)(=O)O (stereo unspecified) [Carbazochrome sodium sulfonate (AC-17)] | 1.09 | inactive: 0.871 | 1.52
54 | CCCCC1OC(=O)c2ccccc21 (stereo unspecified) [3-n-Butylphathlide] | 0.909 | inactive: 0.63 | 0.677
55 | CCCN[C@H]1CCc2nc(N)sc2C1 [Pramipexole] | 1.28 | inactive: 1.2 | 1.75
56 | CC1(C)CCC[C@](C)([C@H]2CC[C@]3(C)[C@@H]2[C@H](O)C[C@@H]2[C@@]4(C)CC[C@H](O)C(C)(C)[C@@H]4[C@H](O)C[C@]23C)O1 [Panaxtriol] | 0.968 | inactive: 0.772 | 1.31
57 | COCCCOc1cc(C[C@@H](C[C@H](N)[C@@H](O)C[C@H](C(=O)NCC(C)(C)C(N)=O)C(C)C)C(C)C)ccc1OC [Aliskiren] | 1.07 | inactive: 1.5 | 1.59
58 | CNC(=C[N+](=O)[O-])NCCSCc1ccc(CN(C)C)o1 [Ranitidine] | 1.16 | inactive: 1.06 | 1.41
